Reference: the supplement of paper PMC8728848
Some of the results follow.

What was measured:
Assay in all cases: glycan array binding signal (z-score within array); higher = stronger binding
Details in all cases: glycan notation: IUPAC condensed, linker removed
[1] = target: GlcNAc(b1-4)GlcNAc(b1-4)GlcNAc(b1-4)GlcNAc(b1-4)GlcNAc
Procedure, shortened: (§1)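 Glycan array binding is given as a within-array Z-score, which can be read as non-binding when negative. The arrays, 3228 of them, came from the Consortium for Functional Glycomics database and were retained only where the protein sequence was available. Z-scores were averaged across arrays of the same protein sequence at different concentrations or buffers and across linkers.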

[2] = target: GlcNAc(b1-4)GlcNAc(b1-4)GlcNAc(b1-4)GlcNAc(b1-4)GlcNAc(b1-4)GlcNAc
Procedure, shortened: as §1

[3] = target: GlcNAc(b1-4)[GlcNAc(b1-6)]GalNAc
Procedure, shortened: as §1

[4] = target: GlcNAc(b1-6)Gal(b1-4)GlcNAc
Procedure, shortened: as §1

GlcNAc(b1-6)GalNAc = target: GlcNAc(b1-6)GalNAc
Procedure, shortened: as §1

[5] = target: GlcNAc6S(b1-3)Gal(b1-4)GlcNAc
Procedure, shortened: as §1

Kdn(a2-3)Gal(b1-3)GalNAc = target: Kdn(a2-3)Gal(b1-3)GalNAc
Procedure, shortened: as §1

Kdn(a2-3)Gal(b1-3)GlcNAc = target: Kdn(a2-3)Gal(b1-3)GlcNAc
Procedure, shortened: as §1

Kdn(a2-3)Gal(b1-4)Glc = target: Kdn(a2-3)Gal(b1-4)Glc
Procedure, shortened: as §1

Kdn(a2-3)Gal(b1-4)GlcNAc = target: Kdn(a2-3)Gal(b1-4)GlcNAc
Procedure, shortened: as §1

[6] = target: Kdn(a2-3)Gal(b1-4)[Fuc(a1-3)]GlcNAc
Procedure, shortened: as §1

Kdn(a2-6)Gal(b1-4)GlcNAc = target: Kdn(a2-6)Gal(b1-4)GlcNAc
Procedure, shortened: as §1

[7] = target: Man(a1-2)Man(a1-2)Man(a1-3)Man
Procedure, shortened: as §1

[8] = target: Man(a1-2)Man(a1-2)Man(a1-6)[Man(a1-3)]Man
Procedure, shortened: as §1

Man(a1-2)Man(a1-3)Man = target: Man(a1-2)Man(a1-3)Man
Procedure, shortened: as §1

[9] = target: Man(a1-2)Man(a1-3)[Man(a1-2)Man(a1-6)]Man
Procedure, shortened: as §1

[10] = target: Man(a1-2)Man(a1-3)[Man(a1-2)Man(a1-6)]Man(a1-6)[Man(a1-2)Man(a1-2)Man(a1-3)]Man
Procedure, shortened: as §1

[11] = target: Man(a1-2)Man(a1-3)[Man(a1-2)Man(a1-6)]Man(a1-6)[Man(a1-2)Man(a1-2)Man(a1-3)]Man(b1-4)GlcNAc(b1-4)GlcNAc
Procedure, shortened: as §1

[12] = target: Man(a1-2)Man(a1-3)[Man(a1-6)]Man(a1-6)[Man(a1-2)Man(a1-3)]Man(b1-4)GlcNAc(b1-4)GlcNAc
Procedure, shortened: as §1

[13] = target: Man(a1-2)Man(a1-6)[Man(a1-3)]Man(a1-6)[Man(a1-2)Man(a1-2)Man(a1-3)]Man
Procedure, shortened: as §1

[14] = target: Man(a1-2)Man(a1-6)[Man(a1-3)]Man(a1-6)[Man(a1-2)Man(a1-2)Man(a1-3)]Man(b1-4)GlcNAc(b1-4)GlcNAc
Procedure, shortened: as §1

Man(a1-3)[Man(a1-6)]Man = target: Man(a1-3)[Man(a1-6)]Man
Procedure, shortened: as §1

[15] = target: Man(a1-3)[Man(a1-6)]Man(a1-6)[Man(a1-2)Man(a1-3)]Man(b1-4)GlcNAc(b1-4)GlcNAc
Procedure, shortened: as §1

[16] = target: Man(a1-3)[Man(a1-6)]Man(a1-6)[Man(a1-3)]Man
Procedure, shortened: as §1

[17] = target: Man(a1-3)[Man(a1-6)]Man(a1-6)[Man(a1-3)]Man(b1-4)GlcNAc(b1-4)GlcNAc
Procedure, shortened: as §1

[18] = target: Man(a1-3)[Man(a1-6)]Man(b1-4)GlcNAc(b1-4)GlcNAc
Procedure, shortened: as §1

[19] = target: Man(a1-3)[Man(a1-6)]Man(b1-4)GlcNAc(b1-4)[Fuc(a1-6)]GlcNAc
Procedure, shortened: as §1

Man(a1-6)Man = target: Man(a1-6)Man
Procedure, shortened: as §1

Man(b1-4)GlcNAc = target: Man(b1-4)GlcNAc
Procedure, shortened: as §1

MurNAc(b1-4)GlcNAc = target: MurNAc(b1-4)GlcNAc
Procedure, shortened: as §1

Neu5Ac(a2-3)Gal = target: Neu5Ac(a2-3)Gal
Procedure, shortened: as §1

[20] = target: Neu5Ac(a2-3)Gal(b1-3)GalNAc
Procedure, shortened: as §1

[21] = target: Neu5Ac(a2-3)Gal(b1-3)GalNAc(b1-3)Gal(a1-4)Gal(b1-4)Glc
Procedure, shortened: as §1

[22] = target: Neu5Ac(a2-3)Gal(b1-3)GalNAc(b1-4)[Neu5Ac(a2-3)]Gal(b1-4)Glc
Procedure, shortened: as §1

[23] = target: Neu5Ac(a2-3)Gal(b1-3)GalNAc(b1-4)[Neu5Ac(a2-8)Neu5Ac(a2-3)]Gal(b1-4)Glc
Procedure, shortened: as §1

[24] = target: Neu5Ac(a2-3)Gal(b1-3)GalNAc6S
Procedure, shortened: as §1

[25] = target: Neu5Ac(a2-3)Gal(b1-3)GlcNAc
Procedure, shortened: as §1

[26] = target: Neu5Ac(a2-3)Gal(b1-3)GlcNAc(b1-2)Man
Procedure, shortened: as §1

[27] = target: Neu5Ac(a2-3)Gal(b1-3)GlcNAc(b1-2)Man(a1-3)[GlcNAc(b1-4)][Neu5Ac(a2-3)Gal(b1-3)GlcNAc(b1-2)Man(a1-6)]Man(b1-4)GlcNAc(b1-4)GlcNAc
Procedure, shortened: as §1

[28] = target: Neu5Ac(a2-3)Gal(b1-3)GlcNAc(b1-2)Man(a1-3)[Neu5Ac(a2-3)Gal(b1-3)GlcNAc(b1-2)Man(a1-6)]Man(b1-4)GlcNAc(b1-4)GlcNAc
Procedure, shortened: as §1

[29] = target: Neu5Ac(a2-3)Gal(b1-3)GlcNAc(b1-3)Gal(b1-3)GlcNAc
Procedure, shortened: as §1

[30] = target: Neu5Ac(a2-3)Gal(b1-3)GlcNAc(b1-3)Gal(b1-4)GlcNAc
Procedure, shortened: as §1

[31] = target: Neu5Ac(a2-3)Gal(b1-3)GlcNAc(b1-3)GalNAc
Procedure, shortened: as §1

[32] = target: Neu5Ac(a2-3)Gal(b1-3)GlcNAc(b1-4)Gal(b1-4)Glc
Procedure, shortened: as §1

[33] = target: Neu5Ac(a2-3)Gal(b1-3)GlcNAc(b1-6)GalNAc
Procedure, shortened: as §1

B1: LFA (Limax flavus) (protein)
chain: MSVLFLAASFLLLASFELVAAQGCPRQDPGDWIVIQRRLNADVNFYRGWADYKHGFGDLRCNFWLGNEKIHQLTSHGRYKLRVEFTFNNKSYFAEYSTFKILGEADKYKLQVGGYSGNAGDALTFHNGMAFSTNDRDNDADSIDCAKVYHGAWWYKTCHESNLNGKWGSKKYGEGLNWKAKTTFTATATSSLLKIKALK
[1]
  glycan array binding signal (z-score): 2.87
[2]
  glycan array binding signal (z-score): 5.81
[3]
  glycan array binding signal (z-score): -0.317
[4]
  glycan array binding signal (z-score): -0.34
GlcNAc(b1-6)GalNAc
  glycan array binding signal (z-score): -0.268
[5]
  glycan array binding signal (z-score): -0.265
Kdn(a2-3)Gal(b1-3)GalNAc
  glycan array binding signal (z-score): -0.121
Kdn(a2-3)Gal(b1-3)GlcNAc
  glycan array binding signal (z-score): -0.168
Kdn(a2-3)Gal(b1-4)Glc
  glycan array binding signal (z-score): -0.303
Kdn(a2-3)Gal(b1-4)GlcNAc
  glycan array binding signal (z-score): -0.189
[6]
  glycan array binding signal (z-score): -0.292
Kdn(a2-6)Gal(b1-4)GlcNAc
  glycan array binding signal (z-score): -0.324
[7]
  glycan array binding signal (z-score): -0.233
[8]
  glycan array binding signal (z-score): -0.079
Man(a1-2)Man(a1-3)Man
  glycan array binding signal (z-score): -0.005
[9]
  glycan array binding signal (z-score): -0.037
[10]
  glycan array binding signal (z-score): -0.12
[11]
  glycan array binding signal (z-score): 1.15
[12]
  glycan array binding signal (z-score): -0.068
[13]
  glycan array binding signal (z-score): -0.248
[14]
  glycan array binding signal (z-score): -0.19
Man(a1-3)[Man(a1-6)]Man
  glycan array binding signal (z-score): -0.208
[15]
  glycan array binding signal (z-score): 3.26
[16]
  glycan array binding signal (z-score): -0.265
[17]
  glycan array binding signal (z-score): -0.266
[18]
  glycan array binding signal (z-score): 0.126
[19]
  glycan array binding signal (z-score): 0.24
Man(a1-6)Man
  glycan array binding signal (z-score): -0.18
Man(b1-4)GlcNAc
  glycan array binding signal (z-score): 0.075
MurNAc(b1-4)GlcNAc
  glycan array binding signal (z-score): -0.363
Neu5Ac(a2-3)Gal
  glycan array binding signal (z-score): -0.178
[20]
  glycan array binding signal (z-score): 0.174
[21]
  glycan array binding signal (z-score): 0.046
[22]
  glycan array binding signal (z-score): -0.259
[23]
  glycan array binding signal (z-score): -0.184
[24]
  glycan array binding signal (z-score): -0.266
[25]
  glycan array binding signal (z-score): -0.15
[26]
  glycan array binding signal (z-score): -0.17
[27]
  glycan array binding signal (z-score): 0.001
[28]
  glycan array binding signal (z-score): -0.006
[29]
  glycan array binding signal (z-score): -0.139
[30]
  glycan array binding signal (z-score): -0.22
[31]
  glycan array binding signal (z-score): -0.113
[32]
  glycan array binding signal (z-score): -0.271
[33]
  glycan array binding signal (z-score): -0.335
